# Data reported in PubChem BioAssay AID1030 (National Center for Advancing Translational Sciences (NCATS), 2008).
# About 16,000 (7.3%) of roughly 220,000 compounds were called active. Inconclusive results, whose numbers are uncertain, are shown with a selection of clear calls. Calls follow the shape of the dose curve; as a rule, active = well fitted inhibition curve with a large enough effect (not every such curve was filed as active); inconclusive = small, poorly fitted or top-dose-only effect, or another doubt; inactive = no such curve, though single readings can be large or run the other way. No potency is given beside an inconclusive call; the fits are too rough.
# Molecular target: Aldehyde dehydrogenase 1A1 (Homo sapiens) (UniProt P00352)
# Chain of UniProt P00352 (P00352 whole entry, looked up): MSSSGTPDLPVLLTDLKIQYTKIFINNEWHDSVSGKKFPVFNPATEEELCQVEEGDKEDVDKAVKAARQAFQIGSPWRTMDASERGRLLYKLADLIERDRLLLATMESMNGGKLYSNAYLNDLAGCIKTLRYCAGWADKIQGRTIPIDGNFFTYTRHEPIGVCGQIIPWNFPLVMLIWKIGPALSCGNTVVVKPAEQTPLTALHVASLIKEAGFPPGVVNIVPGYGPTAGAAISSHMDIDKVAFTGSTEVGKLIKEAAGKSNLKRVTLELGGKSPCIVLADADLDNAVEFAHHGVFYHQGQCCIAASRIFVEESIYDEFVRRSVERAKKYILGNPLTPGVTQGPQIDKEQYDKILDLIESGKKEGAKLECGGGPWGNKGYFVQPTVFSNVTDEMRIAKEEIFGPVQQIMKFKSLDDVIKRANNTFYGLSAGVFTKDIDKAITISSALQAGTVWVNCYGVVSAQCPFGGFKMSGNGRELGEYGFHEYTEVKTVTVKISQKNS
# Test: qHTS Assay for Inhibitors of Aldehyde Dehydrogenase 1 (ALDH1A1)
# Details: Purified ALDH1A1, NADH fluorescence, propionaldehyde substrate; series mostly up to 75.3 µM
# Potency is read from the fitted curve at half-maximal effect; tags tell the direction and shape of the fitted curve.
row,SMILES,Potency
1,CCc1ccc(C(=O)CSc2nc3cc(S(=O)(=O)N4CCOCC4)ccc3n2CC)cc1,active: 28.2 µM
2,CC1CCN(CCCNC(=O)c2cc3c(=O)n(C)c4ccccc4c3n2C)CC1,"inconclusive [inhibitor, single point]"
3,O=C(COC(=O)C1=COCCO1)NC(=O)c1ccc(OC(F)F)cc1,inactive
4,O=C1CCc2cc(S(=O)(=O)NC(Cc3ccccc3)C(=O)NCCC3=CCCCC3)ccc2N1 (configuration not stated),"inconclusive [inhibitor, single point]"
5,O=C(CC(Nc1ccccc1Cl)C(=O)OCC(=O)c1cccs1)c1ccccc1 (configuration not stated),active: 25.1 µM
6,CC1N(O)C(c2ccc(Cl)cc2Cl)N(O)C1(C)C (configuration not stated),active: 14.1 µM
7,COc1ccc(N2C(=O)C3CCCN3C2c2cccc(C)c2)cc1 (configuration not stated),"inconclusive [inhibitor, partial curve]"
8,COC/C=C/C1=CC2=CC(=O)C(C)(OC(=O)CCC(=O)OC)C(=O)C2=CO1 (configuration not stated),inactive
9,Cc1cc(CNCc2c(C(=O)N3CCCCCCC3)nc3ccc(Cl)cn23)nn1C,active: 15.8 µM
10,CCOC(=O)c1[nH]c2c(c1C)C(=O)CC(c1ccc(N(C)C)cc1)C2 (configuration not stated),"inconclusive [inhibitor, partial curve]"
11,O=C(COC(=O)CCS(=O)(=O)c1ccc(Cl)cc1)NCCc1ccccc1,inactive
12,COc1ccc(/C=C2\SC(=O)N(CCNC(=O)CCS(=O)(=O)c3ccc(C)cc3)C2=O)cc1,"inconclusive [inhibitor, partial curve]"
13,CCC(C)(C)n1nnnc1C(c1cc2cc3c(cc2[nH]c1=O)OCO3)N1CCN(C)CC1 (configuration not stated),"inconclusive [inhibitor, partial curve]"
14,COc1ccc(CC2(CO)CCN(Cc3ccncc3)CC2)cc1,"inconclusive [inhibitor, single point]"
15,COC(=O)c1ccc(CCc2cc(O)ccc2O)cc1,active: 0.631 µM
16,COc1ccc(NC(=S)N/N=C/c2cccn2Cc2ccc(F)cc2)cc1,active: 39.8 µM
17,O=C1CCCc2oc3ccc(NS(=O)(=O)c4cccc5cccnc45)cc3c21,"inconclusive [inhibitor, partial curve]"
18,COc1ccc(-n2c(CN3CCC(C)CC3)nc3ccc([N+](=O)[O-])cc3c2=O)c(OC)c1,"inconclusive [inhibitor, single point]"
19,O=C(O)CSc1cc(C(=O)c2cc(F)ccc2O)cn2c(=O)c3c(-c4ccccc4)csc3nc12,active: 7.94 µM
20,CCCSC1=N/C(=C\c2ccc([N+](=O)[O-])o2)C(=O)S1,active: 14.1 µM
21,COc1cc(C)c(-c2[nH]ncc2-c2csc(C)n2)c(O)c1,inactive
22,C[C@@H](C[C@H](N)C(=O)O)C(=O)O,inactive
23,Cc1ccc(C(=O)N2C3=C(CCCC3)C(=O)NC23CCCCC3)cc1,"inconclusive [inhibitor, single point]"
24,C=CCSc1nnc2nc3[nH]c4c(C)cccc4c3nn12,"inconclusive [inhibitor, partial curve]"

row,SMILES,Potency
1,O=C(CCn1c(=O)oc2ccccc21)N1CCCCCC1,"inconclusive [inhibitor, single point]"
2,CCOc1ccc(S(=O)(=O)NCCSCc2ccco2)cc1,active: 2.82 µM
3,CC(=O)NNc1ncnc2c1cnn2-c1ccccc1,inactive
4,CC(=O)N1CCC[C@@]2(CCN(C(c3ccccc3)c3ccccc3)C2)C1,inactive
5,COC(=O)c1c(C#N)c(N)nc2c1CCCC2,"inconclusive [inhibitor, partial curve]"
6,Cc1ccc(O)c(C=Nc2ccc3[nH]ncc3c2)c1,"inconclusive [inhibitor, partial curve]"
7,CCN(CC)S(=O)(=O)c1ccc(NC(=O)COC(=O)c2cc(S(=O)(=O)Nc3ccc(OC)cc3)ccc2O)cc1,"inconclusive [inhibitor, partial curve]"
8,NC(=O)c1ccc(-n2nnnc2Oc2ccccc2C(=O)N2CCOCC2)cc1,inactive
9,Fc1ccc(-c2nc3ccncc3[nH]2)cc1,"inconclusive [inhibitor, single point]"
10,CC1Cc2ccccc2N1C(=O)C1CCCCN1S(=O)(=O)c1ccccc1 (configuration not stated),inactive
11,COc1ccccc1N1CCN(C2CCN(C(=O)COc3ccccc3)CC2)CC1,inactive
12,Cc1cccc2sc(NC(=O)CCNS(=O)(=O)c3cccc4nonc34)nc12,"inconclusive [inhibitor, partial curve]"
13,COc1ccc(-c2ccc(-c3noc(C)n3)c(OC)n2)cc1,"inconclusive [inhibitor, partial curve]"
14,O=C(Nc1nc2ccccc2s1)C1CC(=O)N(c2ccc(F)cc2)C1 (configuration not stated),inactive
15,CCOC(=O)c1sc2nccc(N(C)C)c2c1N=CNOCc1c(F)cccc1Cl,"inconclusive [inhibitor, single point]"
16,O=C(Nc1ccc(NC(=O)c2sc3ccccc3c2Cl)cc1)c1ccco1,"inconclusive [inhibitor, single point]"
17,CC(=O)Nc1ccc(S(=O)(=O)c2c(N)n(CCN3CCOCC3)c3nc4ccccc4nc23)cc1,"inconclusive [inhibitor, partial curve]"
18,Cc1cccc(CN2CCC(CNC(=O)CCNC(=O)Cn3ccc4ccccc4c3=O)CC2)c1,inactive
19,O=C(NC(=S)Nc1ccccc1)c1ccc(-c2ccccc2)cc1,"inconclusive [inhibitor, full curve]"
20,CCCCCCOC(=O)c1ccccc1NC(=O)/C=C/C(=O)O,"inconclusive [inhibitor, single point]"
21,COc1ccc(-c2cc(=O)oc3cc(OCC(C)=O)ccc23)cc1,"inconclusive [inhibitor, single point]"
22,N#Cc1ccc(-c2ccco2)nc1SCc1ccccc1,"inconclusive [inhibitor, single point]"
23,Cc1cccc(Cn2cnc3c(nnn3Cc3ccc(Cl)cc3)c2=O)c1,inactive
